This is one part of the list.
Tested on: S. aureus RN4220
Assay: growth inhibition call (relative growth <= 0.2)
Conditions: 50 µM

Growth inhibition call, inactive:
CC(=O)n1cc([C@H]2C=C(C(=O)N3CCCCCCC3)O[C@@H](OCc3ccc(CO)cc3)C2)c2ccccc21
COc1cccc(C#Cc2ccc3c(c2)O[C@@H](CN(C)S(=O)(=O)c2ccccc2F)[C@H](C)CN([C@@H](C)CO)S3(=O)=O)c1
C[C@@H]1CCCCO[C@H](CN(C)C(=O)Nc2ccc3c(c2)OCO3)[C@H](C)CN([C@H](C)CO)C(=O)c2cc(NC(=O)C3CCCCC3)ccc2O1
C[N+](C)(C)CCCC[C@@H]1NC(=O)[C@H]2C[C@@H](C(=O)NCCCCCNC(=O)CS)[C@@H](c3cccc(OCCO)c3)N2C1=O
C[C@H](CO)N1C[C@H](C)[C@@H](CN(C)Cc2ccc(C(=O)Nc3ccccc3N)cc2)Oc2ccc(NC(=O)Cn3cnnn3)cc2CC1=O
C[C@@H]1CN([C@@H](C)CO)S(=O)(=O)c2ccc(C#CC3(O)CCCC3)cc2O[C@H]1CN(C)C(=O)Nc1ccc(F)cc1
C[C@@H]1CCCCO[C@@H](CN(C)C(=O)Nc2ccccc2)[C@H](C)CN([C@H](C)CO)C(=O)c2cc(NS(=O)(=O)c3ccc(Cl)cc3)ccc2O1
C[C@@H]1CN([C@H](C)CO)C(=O)Cc2cc(NC(=O)CCCN(C)C)ccc2O[C@@H]1CN(C)Cc1ccc(Oc2ccccc2)cc1
Cn1c(=O)c(=O)n(C)c2cc(S(=O)(=O)N3CCC[C@@H]3C(=O)O)ccc21
Cc1noc(C)c1NC(=O)Nc1ccc2c(c1)C(=O)N([C@H](C)CO)C[C@H](C)[C@H](CN(C)Cc1ccc(C(=O)O)cc1)OCCCC[C@@H](C)O2
